The target of assay [1] is T1, Strep-tagged CDAN1 (ST-CDAN1), wildtype (human, UniProt Q8IWY9 1-1227).
T1 construct: Codanin-1 (CDAN1), human, 1227 residues; cDNA from Horizon Discovery/Dharmacon, its point mutation S421F corrected; same construct used in Expi293 and in Flp-In 293 T-REx cells; dimer by SEC-MALS and cryo-EM; also called Strep-CDAN1; WT CDAN1; source: Expi293, transiently transfected, in lysate and purified in complexes (anti-FLAG, Strep-Tactin); Flp-In 293 T-REx, transiently transfected, in …
T1 sequence: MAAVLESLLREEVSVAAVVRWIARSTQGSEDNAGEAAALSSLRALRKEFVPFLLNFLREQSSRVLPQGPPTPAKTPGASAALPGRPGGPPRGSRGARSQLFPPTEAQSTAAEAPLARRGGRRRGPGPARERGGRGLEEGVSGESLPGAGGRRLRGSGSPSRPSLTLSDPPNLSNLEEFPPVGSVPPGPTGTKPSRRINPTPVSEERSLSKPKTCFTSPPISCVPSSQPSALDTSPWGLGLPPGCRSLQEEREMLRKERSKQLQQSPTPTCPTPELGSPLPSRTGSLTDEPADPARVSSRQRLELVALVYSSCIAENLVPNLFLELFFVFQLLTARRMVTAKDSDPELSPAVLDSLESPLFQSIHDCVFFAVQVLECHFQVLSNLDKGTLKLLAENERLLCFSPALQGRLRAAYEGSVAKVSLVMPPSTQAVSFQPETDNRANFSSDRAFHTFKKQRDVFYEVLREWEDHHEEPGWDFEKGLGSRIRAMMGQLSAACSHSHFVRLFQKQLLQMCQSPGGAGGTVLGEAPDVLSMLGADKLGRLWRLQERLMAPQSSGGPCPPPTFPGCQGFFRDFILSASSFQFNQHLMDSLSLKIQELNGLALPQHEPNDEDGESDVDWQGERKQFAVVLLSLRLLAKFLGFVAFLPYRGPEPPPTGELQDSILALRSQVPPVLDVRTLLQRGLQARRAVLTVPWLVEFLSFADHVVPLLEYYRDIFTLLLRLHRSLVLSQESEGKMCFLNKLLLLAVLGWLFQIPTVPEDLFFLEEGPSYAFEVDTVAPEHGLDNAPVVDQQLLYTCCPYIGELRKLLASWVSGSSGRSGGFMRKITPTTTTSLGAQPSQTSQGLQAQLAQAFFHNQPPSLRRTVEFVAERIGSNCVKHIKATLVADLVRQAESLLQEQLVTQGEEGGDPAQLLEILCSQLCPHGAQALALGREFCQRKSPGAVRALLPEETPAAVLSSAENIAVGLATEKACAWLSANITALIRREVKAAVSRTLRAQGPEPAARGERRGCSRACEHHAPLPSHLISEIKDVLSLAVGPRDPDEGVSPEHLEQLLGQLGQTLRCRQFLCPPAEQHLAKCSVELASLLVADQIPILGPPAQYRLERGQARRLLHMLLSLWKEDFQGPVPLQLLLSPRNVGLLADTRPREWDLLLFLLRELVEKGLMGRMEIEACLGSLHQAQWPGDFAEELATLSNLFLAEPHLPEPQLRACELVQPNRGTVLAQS
As to the kind of experiment: pull-down; Strep-Tactin pulldown of transiently transfected ST-CDAN1 variants from Flp-In 293 T-REx lysates; endogenous ASF1A, ASF1B and CDIN1 detected by immunoblotting; IP buffer with 1% Triton X-100, 1 hr at 4 °C. (In general: A western blot detects proteins with antibodies after separation by electrophoresis.)

The chains behind the UniProt entries cited, without tags or fusion partners.
UniProt Q9Y294: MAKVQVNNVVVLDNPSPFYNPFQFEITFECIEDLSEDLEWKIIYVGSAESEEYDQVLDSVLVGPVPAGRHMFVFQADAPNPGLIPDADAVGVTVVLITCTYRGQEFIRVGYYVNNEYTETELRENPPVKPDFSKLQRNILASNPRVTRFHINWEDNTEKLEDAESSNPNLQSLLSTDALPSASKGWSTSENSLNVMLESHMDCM
UniProt Q9NVP2: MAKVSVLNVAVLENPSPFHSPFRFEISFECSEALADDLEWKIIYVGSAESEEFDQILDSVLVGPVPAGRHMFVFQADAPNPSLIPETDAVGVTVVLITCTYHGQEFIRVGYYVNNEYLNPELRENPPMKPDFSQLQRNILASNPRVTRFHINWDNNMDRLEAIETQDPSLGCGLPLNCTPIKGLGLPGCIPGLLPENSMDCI

Assay [2] has as its target T2, Strep-CDAN1 BDA1* BDA2* (both B-domains mutated) (human) (UniProt Q8IWY9).
T2 sequence: T1 sequence with S194A, R195A, R196A, M824A, R825A, K826A
Described as above.

Changes are numbered by the printed parent chain. Results are given in words; binding and its absence hold for the method and conditions named. In cells and extracts the contact can be indirect. Some entries that bind do so weakly or less than the wild type. For some of these results: Tags and fused reporters may be left off the sequences shown.

In the case of “endogenous ASF1A (from UniProt Q9Y294 1-204)”, the binding entry is recorded as “binds” in assay [1] and “no binding” in assay [2].

Turning to “endogenous ASF1B (from UniProt Q9NVP2 1-202)”, the binding entry is “binds” in assay [1] and “no binding” in assay [2].

For the origin of these results see paper PMC11911400, “Mechanism of ASF1 engagement by CDAN1” (Nature Communications, 2025).
